Laboratory results published in publication PMC4336329 (PLoS ONE, 2015).
The campaign covered roughly 310,000 compounds. About 14,000 (4.5%) showed an effect of 50% or more. The effect is printed as a negative number. The list shows a part of the results.

target: human ether-à-go-go-related gene (hERG) potassium channel (human, UniProt Q12809); assay: primary screen, population patch clamp on CHO cells stably expressing hERG
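Further: peak tail current of the secondary pulse compared with the same well before compound.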

human ether-à-go-go-related gene (hERG) potassium channel, sequence (Q12809 whole entry, looked up): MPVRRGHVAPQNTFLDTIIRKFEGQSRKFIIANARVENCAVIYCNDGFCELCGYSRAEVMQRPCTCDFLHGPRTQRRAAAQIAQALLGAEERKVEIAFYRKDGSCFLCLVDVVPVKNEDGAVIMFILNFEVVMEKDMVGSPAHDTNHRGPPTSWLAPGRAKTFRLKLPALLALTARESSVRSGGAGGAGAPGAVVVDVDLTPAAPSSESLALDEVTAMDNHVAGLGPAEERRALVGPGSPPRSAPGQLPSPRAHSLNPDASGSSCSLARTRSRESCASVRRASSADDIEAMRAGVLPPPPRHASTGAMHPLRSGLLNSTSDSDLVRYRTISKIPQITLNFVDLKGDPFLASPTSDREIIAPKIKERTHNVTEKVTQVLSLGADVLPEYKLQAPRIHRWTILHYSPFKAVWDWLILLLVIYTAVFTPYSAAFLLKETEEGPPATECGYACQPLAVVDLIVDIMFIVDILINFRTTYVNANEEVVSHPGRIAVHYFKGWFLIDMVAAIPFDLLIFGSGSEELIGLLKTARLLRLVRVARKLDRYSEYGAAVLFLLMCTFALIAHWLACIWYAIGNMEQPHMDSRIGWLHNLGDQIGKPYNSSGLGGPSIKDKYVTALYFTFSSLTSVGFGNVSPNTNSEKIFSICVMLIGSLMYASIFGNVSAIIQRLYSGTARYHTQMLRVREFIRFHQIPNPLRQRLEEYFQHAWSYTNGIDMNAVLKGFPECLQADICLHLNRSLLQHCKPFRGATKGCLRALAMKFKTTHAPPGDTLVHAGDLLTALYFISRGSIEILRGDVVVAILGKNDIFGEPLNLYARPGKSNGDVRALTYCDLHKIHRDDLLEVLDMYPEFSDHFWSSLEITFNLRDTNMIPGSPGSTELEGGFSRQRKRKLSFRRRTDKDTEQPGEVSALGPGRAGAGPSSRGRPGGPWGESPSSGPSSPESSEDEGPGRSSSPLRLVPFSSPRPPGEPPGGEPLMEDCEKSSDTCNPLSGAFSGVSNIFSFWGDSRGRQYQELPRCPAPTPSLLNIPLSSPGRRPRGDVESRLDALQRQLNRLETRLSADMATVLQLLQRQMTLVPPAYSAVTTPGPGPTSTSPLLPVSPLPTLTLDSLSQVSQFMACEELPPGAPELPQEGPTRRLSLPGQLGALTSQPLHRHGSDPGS

In order of rising “hERG current change (%, negative = inhibition) at 10uM” value:
1. CCOc1ccc(CN2CCN(CC3CC3)CC2CCO)cc1 (stereo not shown)  -67.1%
2. Cc1ccc2c(CSc3nnnn3C)cc(=O)oc2c1  -42.4%
3. O=C(COC(=O)[C@H](Cc1ccccc1)NS(=O)(=O)c1ccccc1F)NC1CCCCC1  -40.4%
4. O=C(c1nc2ccccn2c1CNCCCn1ncc2ccccc21)N1CCCC1  -37.7%
5. CCOC(=O)C1CCN(S(=O)(=O)CCNC(=O)c2ccc(F)cc2)CC1  -35.9%
6. COCCNC(=O)CSc1nc2ccccc2c(=O)n1CCC(=O)N1CCN(c2ccccc2)CC1  -35%
7. CN(C)CCNc1oc(/C=C/c2ccccc2)nc1C#N  -29.2%
8. C/C(=N\Nc1cc(N2CCOCC2)ncn1)c1ccccc1  -19%
9. CCOC(=O)c1c(C=O)c(C)n(Cc2ccc(Cl)cc2)c1C  -18.8%
10. CC(=O)Nc1cccc(OCc2ccc(F)cc2)c1  -12%
11. O=C(CCCn1c(=O)[nH]c2ccccc2c1=O)NC1CCCCCC1  -9.14%
12. CC(C)COC(=O)n1c(SCC(=O)N(C)C)nc2ccccc21  -7.64%
13. Cc1ccc(O)c(NC(=S)NC(=O)/C=C/c2ccco2)c1  -4.5%
14. COc1ccc(C2C(C#N)=C(N)Oc3c2c(=O)oc2ccccc32)cc1Cn1cc([N+](=O)[O-])cn1 (stereo not shown)  -4.41%
15. COC(=O)C(O)(c1c[nH]c2ccccc12)C(F)(F)F (stereo not shown)  -4.25%
16. COc1ccc(-c2occ(C(=O)O)c2C(=O)O)cc1  -3.07%
17. CCCN(CC1CC1)c1nc(C)nc(Nc2c(Cl)cc(Cl)cc2Cl)c1Cl  -2.65%
18. COCCSc1ccccc1C(=O)Nc1nnc(COC)s1  -2.63%
19. O=C(OCC(=O)c1ccccc1Cl)c1cnccn1  -0.611%
20. O=C1CC(N2CCN(c3ccc(O)cc3)CC2)C(=O)N1c1ccc2c(c1)OCO2 (stereo not shown)  0.244%
21. Cc1ccsc1C1Nc2ccccc2-c2nc3ccccc3n21 (stereo not shown)  0.903%
22. COc1ccccc1CNC(=O)C1CSC2(C)CCC(=O)N12 (stereo not shown)  1.63%
23. CN(C(=O)CN1CCC(NC(=O)C2CCCCC2)CC1)C1CCCCC1.Cl  1.84%
24. CN(C)/C=C(\C#N)C(=O)Nc1ccc(F)cc1  2.4%
25. Cl.O=C(Nc1ncccc1Cl)c1cccc(F)c1  2.94%
26. CC(NC(=O)C(Cc1ccccc1)n1cccc1)c1ccccc1 (stereo not shown)  3.04%
27. COc1ccc2c(C)c(C)c(=O)oc2c1OC  3.4%
28. Cc1ccc(NC(=S)N2CCC(NC(=O)c3ccc(C)cc3)CC2)cc1  4.09%
29. O=C(Cc1cc(=O)[nH][nH]1)N/N=C/C(Cl)=C/c1ccccc1  4.46%
30. C#CCOC(=O)Nc1cc(C)n(-c2ccccc2)n1  5.38%
31. CN(C(=O)c1nc(-c2ccccc2)n(-c2ccccc2)n1)C1CCS(=O)(=O)C1 (stereo not shown)  7.86%
32. COc1ccc(C(=O)c2sc(Nc3ccc(NC(C)=O)cc3)nc2C)cc1  9.79%
33. N#CC1(c2ccccc2)CCN(C2CC(=O)N(c3ccc(F)cc3)C2=O)CC1 (stereo not shown)  11%
34. C/C(=N/NC(=O)CNC(=O)c1cccc(F)c1)c1ccc2c(c1)CCCC2  12.4%
35. COc1cccc(Nc2nc(-c3ccc(O)cc3)cs2)c1  13.1%
36. O=C(O)CSC(=S)N1CC2CC(C1)c1cccc(=O)n1C2 (stereo not shown)  13.2%
37. CC(=O)C[C@@H](O)CC(=O)[C@H]1OC(=O)CC/C=C\Cc2ccccc21  14.4%
38. Cn1c(SCC(=O)c2ccc(O)c(O)c2)nnc1-c1cccs1  14.5%
39. Cc1cn(C(=O)c2cccc(Br)c2)c(C)n1  15%
40. O=C(O)C[C@H]1c2ccccc2S(=O)(=O)N1c1ccccc1  16.5%
41. O=C(CCSc1ccccc1)Nc1ccc(S(=O)(=O)Nc2ncccn2)cc1  17.3%
42. O=c1[nH]c(CN2CC=C(c3ccccc3)CC2)nc2scc(-c3cccs3)c12  17.5%
43. CC(=O)N1N=C2C3CCN(CC3)C2C1c1ccc(C)cc1 (stereo not shown)  18.6%
44. CC(=O)/C(N=Nc1c(C)n(C)n(-c2ccccc2)c1=O)=C(\C)O  20.6%
45. CCN(CC)S(=O)(=O)c1cc(C(=O)Oc2cccc(-c3cnc4ccccc4n3)c2)ccc1Br  21.8%
46. Cc1cc(NC(=O)NC(=O)c2ccccc2)no1  23.1%
